Results: PubChem BioAssay AID686978 (National Center for Advancing Translational Sciences (NCATS), 2013)
Values joined by “and” are separate entries in the source; they are usually repeats but may differ in a detail not shown here. Identical values can stand only once. The campaign covered roughly 420,000 compounds. About 64,000 (15%) were called active. This list was built around the results that the source calls inconclusive (neither active nor inactive); the mix of calls is not that of the screen. Calls follow the shape of the dose curve; as a rule, active = well fitted inhibition curve with a large enough effect; inconclusive = small, poorly fitted or top-dose-only effect; inactive = flat fitted curve, though single readings scatter. A potency beside an inconclusive call is a rough fit, not a confirmed value.

Experiment: qHTS for Inhibitors of human tyrosyl-DNA phosphodiesterase 1 (TDP1): qHTS in cells in absence of CPT; also: nearly all actives have a fitted effect of over 55% in size
Conditions: DT40 Tdp1-/- hTDP1 cells, no CPT, ATP luminescence, 48 h; activity change, negative = growth inhibition: at 46.2 µM (top of the series) unless noted
How it was run: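 A cellular qHTS used chicken DT40 cells lacking endogenous Tdp1 but carrying stably transfected human TDP1. Compounds were applied without camptothecin, and cell growth kinetics were judged by ATP-dependent luminescence after ≥48 hr.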
% is scaled to controls: 0 for no effect and ±100 for the full control effect; potency is read from the fitted curve at half-maximal effect; tags tell the direction and shape of the fitted curve.

| SMILES | Potency | activity change, negative = growth inhibition |
| --- | --- | --- |
| CCOc1cccc2c1OC(c1cc(OC)c(OC)c(OC)c1)N1N=C(c3ccc(C)o3)CC21 (stereo not given) | active: 25.9 µM |  |
| CSCCC(NC(=O)c1ccccc1)C(=O)Nc1ccncc1 (stereo not given) |  | inconclusive: -2.48% [inhibitor] |
| O=C(c1ccc(Cl)cc1)C1CCCN(Cc2cccn2-c2ccccn2)C1 (stereo not given) | inconclusive: 25.9 µM [inhibitor, single point] |  |
| COc1ccc(C(=O)C2CCCN(C(=O)c3cccnc3SC)C2)c(C)c1 (stereo not given) | inconclusive: 25.9 µM [inhibitor, single point] |  |
| CCOC(=O)c1sc(NC(=O)CSc2nnc(C(C)C)n2CC)nc1C | inconclusive: 20.6 µM [inhibitor, single point] |  |
| Cc1ccc2nc(-c3ccccc3)cn2c1 | active: 18.4 µM |  |
| Cc1cc(N/N=C/c2ccc3c(c2)OCO3)nc2ccccc12 | active: 25.9 µM |  |
| COc1cc(/C=N/NC(=O)c2cccc([N+](=O)[O-])c2)ccc1O |  | inactive: 5.36% |
| CC(=O)N1CC(C)Sc2ccc(S(=O)(=O)NCc3ccc(F)cc3)cc21 (stereo not given) | inconclusive: 23.1 µM [inhibitor, single point] |  |
| NC(=O)c1ccc(C(F)(F)F)n(Cc2ccc(F)c(F)c2)c1=O | inconclusive: 10.3 µM [inhibitor, partial curve] |  |
| COCC(=O)N1CCC2CC1c1cc(Cl)ccc12 (stereo not given) |  | inactive: -15.1% |
| COc1ccc(C)cc1NC(=O)CCC(=O)Nc1nnc(C(F)(F)F)s1 |  | inactive: -0.883% |
| NNC(=O)c1ccc(COc2ccc([N+](=O)[O-])cc2)o1 |  | inactive: -21.4% |
| O=C(NCCc1nc2ccccc2n1Cc1ccc(F)cc1)c1ccco1 | inconclusive: 20.6 µM [inhibitor, single point] |  |
| CCOc1ccccc1NC(=O)COc1coc(CN2CCc3ccccc3C2)cc1=O | active: 13 µM |  |
| NS(=O)(=O)c1cccc(NC(=O)CN2CCN(S(=O)(=O)c3ccc4c(c3)OCCO4)CC2)c1 |  | inactive: -15.9% |
| COc1cc(C(=O)OCC(=O)c2cc(C)n(CC3CCCO3)c2C)ccc1OCC(=O)N1CCOCC1 (stereo not given) | inconclusive: 25.9 µM [inhibitor, single point] |  |
| COCC1CCN(Cc2c(C(=O)N3CCc4ccccc4C3)nc3ccc(Cl)cn23)C1 (stereo not given) |  | inconclusive: -34% [inhibitor] |
| COc1ccc(CNC(=O)c2ccc(CS(=O)(=O)c3ccccc3OC)o2)cc1 | inconclusive: 29.1 µM [inhibitor, single point] |  |
| CCc1ccccc1NC(=S)N(Cc1ccc(C(=O)O)cc1)Cc1ccc(OC)c(OC)c1 |  | inactive: -10.5% |
| COC(=O)C1(c2ccccc2)NC(c2ccc(O)cc2)C2C(=O)N(c3ccc4c(c3)OCO4)C(=O)C21 (stereo not given) |  | inactive: -4.94% |
| Cc1ccc(-c2nc(C3CCCN(S(=O)(=O)c4ccc(C)cc4)C3)no2)cc1 (stereo not given) | inconclusive: 29.1 µM [inhibitor, single point] |  |
| CN1CCC2CC1c1cc(-c3ccc(C(F)(F)F)cc3)ccc12 (stereo not given) | inconclusive: 18.4 µM [inhibitor, single point] |  |
| COc1ccccc1-n1c(C)cc(/C=C2\C(=N)N3N=C(CC(=O)N4CCOCC4)SC3=NC2=O)c1C | inconclusive: 29.1 µM [inhibitor, single point] |  |

| SMILES | Potency | activity change, negative = growth inhibition |
| --- | --- | --- |
| CC1CCN(c2ccc(/C=N\Nc3nncn3N)cc2[N+](=O)[O-])CC1 | inconclusive: 16.4 µM [inhibitor, single point] |  |
| CC(C)CN1CN(Cc2ccccc2)CNC1=S |  | inactive: -3.59% |
| CCOc1ccc(CCNC(=O)Cn2nc(-c3ccc(C)cc3)ccc2=O)cc1OCC | inconclusive: 18.4 µM [inhibitor, single point] |  |
| CCCc1cc(NCCCn2ccnc2)n2nc(C)c(-c3ccccc3)c2n1 | inconclusive: 25.9 µM [inhibitor, single point] |  |
| CCN(C(=O)C(C)N1C(=O)/C(=C/c2cccs2)SC1=S)C1CCS(=O)(=O)C1 (stereo not given) | inconclusive: 18.4 µM [inhibitor, single point] |  |
| COc1cccc(-n2c(-c3ccco3)nc3nc4ccccc4nc32)c1 |  | inactive: -19% |
| CCN(CC)S(=O)(=O)c1ccc2c(c1)N(CC(=O)N1CCN(c3ccc(F)cc3)CC1)C(=O)CO2 | inconclusive: 16.4 µM [inhibitor, partial curve] |  |
| CC(C)NC(=O)/C(C#N)=C/c1ccc(N(C)C)o1 |  | inactive: -17.6% |
| CCN(CC)S(=O)(=O)c1ccc(-c2nnc(SCC(=O)Nc3ccc(OC)cc3)o2)cc1 |  | inactive: -10.5% |
| Cc1ccc(-c2nc(CCNC(=O)C(=O)Nc3ccc(C)cc3C)cs2)cc1 |  | inactive: -19.9% |
| Cc1ccc(S(=O)(=O)NCc2ccc(C(=O)NC3CCC(O)CC3)cc2)cc1C (stereo not given) |  | inactive: -8.3% |
| CCc1ccccc1NC(=O)C1=C(C)C(=O)OC12CCCCCC2 |  | inactive: -4.43% |
| CCCOc1ccc(NC(=O)CC2C(=O)N(C)C(=S)N2Cc2ccc3c(c2)OCO3)cc1 (stereo not given) | inconclusive: 18.4 µM [inhibitor, single point] |  |
| COc1cc(OC)c(C(=O)OC(C)C(=O)Nc2cccc(C(F)(F)F)c2)cc1OC (stereo not given) | inconclusive: 25.9 µM [inhibitor, single point] |  |
| O=C(Nc1cccnc1Cl)C1CCCN(c2ncnc3c2nc2n3CCCCC2)C1 (stereo not given) | inconclusive: 29.1 µM [inhibitor, single point] |  |
| Cc1cccc(NC(=O)c2ccc(S(=O)(=O)NCc3cccnc3)cc2)c1 | inconclusive: 29.1 µM [inhibitor, single point] |  |
| CCC(=O)N(CCC(c1ccco1)C(C)C)Cc1ccccc1 (stereo not given) | inconclusive: 23.1 µM [inhibitor, single point] |  |
| CC1=C(C(=O)OCCOc2ccccc2)C(c2coc3ccccc3c2=O)C2=C(CCCC2=O)N1 (stereo not given) | inconclusive: 13 µM [inhibitor, partial curve] |  |
| CCOC(=O)c1cc(-c2ccccc2)n(CC(=O)Nc2cc(OC)cc(OC)c2)c1C | active: 16.4 µM |  |
| CCC(C)NC(=O)c1cnn2c(C)c3c(nc12)CCCC3 (stereo not given) | inconclusive: 25.9 µM [inhibitor, single point] |  |
| CNc1ccc(Br)cc(C(=O)/C=C/c2ccc(Cl)cc2Cl)c1=O | active: 18.4 µM |  |
| CN(C(=O)c1cccc(NC(=O)Cc2cccc(NC(=O)C3CCCN(C(=O)C4CCCCC4)C3)c2)c1)C1CC1 (stereo not given) |  | inactive: -23.5% |
| O=C(CN1CCN(C(c2ccccc2)c2ccccc2)CC1)N1CCN(c2ccccc2)CC1 | active: 18.4 µM |  |
| CC(C)C(=O)Nc1nnc(COc2ccc(Cl)cc2)s1 | inconclusive: 23.1 µM [inhibitor, single point] |  |

| SMILES | Potency | activity change, negative = growth inhibition |
| --- | --- | --- |
| COC(=O)[C@@]1(Cc2ccc(F)cc2)[C@H]2c3cc(C(=O)N(C)C)n(C)c3C[C@H]2CN1C(=O)c1ccccc1 | inconclusive: 18.4 µM [inhibitor, single point] |  |
| COc1ccc(OC)c(C(=O)c2coc3ccc(O)c(CN(C)C)c23)c1 | inconclusive: 8.2 µM [inhibitor, partial curve] |  |
| CCOC(=O)N/N=C/c1cn(Cc2ccccc2Cl)c2ccccc12 | inconclusive: 29.1 µM [inhibitor, single point] |  |
| O=C(CNS(=O)(=O)c1cccs1)N1CCN(c2cccc(C(F)(F)F)c2)CC1 | active: 20.6 µM |  |
| O=C(c1ccco1)N(Cc1cccnc1)C(c1ccccc1)c1nc2ccccc2[nH]1 (stereo not given) |  | inactive: -55.2% |
| CCC(C)(C)NC(=O)/C=C/c1ccc(OC)c(S(=O)(=O)N2CCOCC2)c1 | inconclusive: 23.1 µM [inhibitor, single point] |  |
| O=Nc1c(-c2ccccc2)[nH]n(-c2ccccc2)c1=O | inconclusive: 7.31 µM [inhibitor, single point] |  |
| CCC1(C)CC(CC(=O)O)(c2ccccc2OC)CCO1 (stereo not given) |  | inactive: 0.701% |
| O=C(O)C(CCc1ccccc1)N1CCOCC1 (stereo not given) |  | inconclusive: -16.4% [inhibitor] |
| C/C(=N\Nc1nc2ccccc2nc1C)c1ccccc1O | active: 0.092 µM |  |
| Cn1c2ccccc2c2c(C(=O)NCCCN3CCCC3=O)cn(C3CCCCC3)c(=O)c21 | inconclusive: 14.6 µM [inhibitor, single point] |  |
| CCCC(=O)OCC(=O)Nc1cc([N+](=O)[O-])ccc1OC |  | inconclusive: -29.3% [inhibitor] |
| COc1cc(C)c2c(c1C=O)Oc1c(c(C)c(O)c3c1C(O)OC3=O)OC2=O (stereo not given) | inactive and inconclusive: 10.3 µM [inhibitor, single point] |  |
| CCOc1ccccc1N=C1SC(CC(=O)Nc2ccc(OC)cc2OC)C(=O)N1CCC1=CCCCC1 (stereo not given) | inconclusive: 29.1 µM [inhibitor, single point] |  |
| Cc1c2cnn(CC(=O)NCCc3ccccc3)c(=O)c2c(C)n1Cc1ccccc1 | inconclusive: 25.9 µM [inhibitor, single point] |  |
| COc1ccc(/C=N/Nc2nc3ccccc3[nH]2)c(OC)c1OC | inconclusive: 25.9 µM [inhibitor, single point] |  |
| COc1ccc(/C=N/NC2=NS(=O)(=O)c3ccccc32)cc1 |  | inactive: 6.72% |
| COc1ccc(OC)c(NC(=O)c2cccn2-c2nnc(N3CCCCC3)s2)c1 | inconclusive: 23.1 µM [inhibitor, single point] |  |
| COc1ccc(CN2C[C@@H](CO)O[C@@H](n3cnc4c(N5CCN(CCO)CC5)ncnc43)C2)cc1 |  | inactive: -24.5% |
| COc1ccc(C(=O)NC2CC2)cc1OC1CCN(Cc2ccc(Cl)cc2)CC1 | inconclusive: 18.4 µM [inhibitor, single point] |  |
| Cc1ccc(CNS(=O)(=O)NCc2cccs2)cc1 | inconclusive: 0.731 µM [inhibitor, full curve, poor fit] |  |
| COc1ccc(N2CCN(C(=O)CCSCc3ccccc3F)CC2)cc1 | inconclusive: 29.1 µM [inhibitor, single point] |  |
